According to the supplement of paper PMC10441789:
Some of the results follow. Antibody binding of pooled human sera (four to six donors per pool; dilution not stated) to peptides of the Trypanosoma cruzi antigen TSSA on microarrays. Quantile-normalised fluorescence in arbitrary units, mean of duplicate arrays; higher = more binding. No active / inactive call. The uninfected pools are read here as the healthy donors of the same country. The strongest signals lie near the top of the scale (about 60,000).

Assays:
Assay in all cases: antibody binding signal (normalised fluorescence) (arbitrary fluorescence units); higher = stronger serum antibody binding to peptide
[1] = system: pooled sera of chronic Chagas disease patients, Argentina
Protocol: (§1)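 Microarray of 15-residue peptides over residues 30-55 of Trypanosoma cruzi TSSAII, each with 1 to 10 substitutions at naturally variable positions, probed with one serum pool per country.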

[2] = system: pooled sera of chronic Chagas disease patients, Bolivia
Protocol: as §1

[3] = system: pooled sera of chronic Chagas disease patients, Brazil
Protocol: as §1

[4] = system: pooled sera of chronic Chagas disease patients, Colombia
Protocol: as §1

[5] = system: pooled sera of chronic Chagas disease patients, Mexico
Protocol: as §1

[6] = system: pooled sera of chronic Chagas disease patients, USA
Protocol: as §1

[7] = system: pooled sera of uninfected people, Argentina
Protocol: as §1

[8] = system: pooled sera of uninfected people, Bolivia
Protocol: as §1

[9] = system: pooled sera of uninfected people, Brazil
Protocol: as §1

[10] = system: pooled sera of uninfected people, Colombia
Protocol: as §1

[11] = system: pooled sera of uninfected people, Mexico
Protocol: as §1

[12] = system: pooled sera of uninfected people, USA
Protocol: as §1

Row | Sequence | antibody binding signal [1] | antibody binding signal [2] | antibody binding signal [3] | antibody binding signal [4] | antibody binding signal [5] | antibody binding signal [6] | antibody binding signal [7] | antibody binding signal [8] | antibody binding signal [9] | antibody binding signal [10] | antibody binding signal [11] | antibody binding signal [12]
1 | NKTATGEAPSPSGAS | 6200 | 34300 | 18100 | 191 | 584 | 20500 | 429 | 683 | 554 | 247 | 157 | 956
2 | GKENKPATGEAPSPS | 50300 | 40100 | 49700 | 6570 | 7920 | 44500 | 1520 | 932 | 299 | 251 | 444 | 149
3 | PPSGKENKAATGETP | 17100 | 10200 | 7400 | 870 | 2180 | 12200 | 3190 | 1980 | 346 | 1250 | 237 | 325
4 | KKTATGEAPSPPGAS | 2370 | 5040 | 6310 | 200 | 157 | 12700 | 314 | 265 | 95.5 | 140 | 88.8 | 431
5 | PPSGKEKKTATGGAP | 2570 | 375 | 1480 | 1460 | 3070 | 2920 | 421 | 336 | 110 | 196 | 130 | 204
6 | PSGKDNKAATGGAPS | 4200 | 2040 | 3650 | 10500 | 8920 | 4040 | 352 | 303 | 184 | 171 | 124 | 163
7 | KPAAGGTPSPSGASS | 164 | 215 | 287 | 1600 | 2520 | 330 | 140 | 140 | 309 | 240 | 82.7 | 230
8 | KKTATGETPSQSGAS | 511 | 841 | 3300 | 248 | 262 | 5000 | 392 | 311 | 129 | 120 | 284 | 512
9 | GTENKPAAGETPSPP | 42700 | 3540 | 19600 | 1180 | 3360 | 5250 | 324 | 1170 | 227 | 182 | 167 | 335
10 | GKENKTATGEAPSQS | 21100 | 13200 | 25600 | 13600 | 11800 | 27600 | 561 | 156 | 199 | 179 | 259 | 163
11 | KPAAGEAPSPPGASS | 728 | 270 | 19600 | 231 | 197 | 10300 | 231 | 176 | 120 | 94 | 98.5 | 157
12 | TDKKAAAGETPSQSG | 735 | 421 | 3270 | 410 | 244 | 1020 | 98.5 | 176 | 172 | 658 | 248 | 113
13 | PSGTDNKAATGGTPS | 19300 | 11100 | 43400 | 1140 | 928 | 853 | 227 | 621 | 1640 | 405 | 310 | 206
14 | ENKPATGGAPSPSGA | 1380 | 19400 | 5790 | 454 | 1050 | 3540 | 521 | 1080 | 478 | 190 | 245 | 281
15 | TENKPATGGTPSQPG | 43800 | 1730 | 17900 | 809 | 1030 | 2250 | 452 | 792 | 522 | 317 | 640 | 237
16 | PPSGTEKKPATGGAP | 35800 | 9550 | 32300 | 950 | 5830 | 6300 | 1570 | 1600 | 449 | 513 | 375 | 1110
17 | SGTENKTAAGETPSQ | 33600 | 8130 | 14300 | 542 | 459 | 4200 | 476 | 381 | 179 | 340 | 215 | 201
18 | DNKAAAGEAPSQSGA | 628 | 23300 | 27200 | 177 | 172 | 13800 | 95.6 | 342 | 180 | 93.5 | 224 | 111
19 | SSTPPSGKDNKPAAG | 40400 | 16900 | 30600 | 305 | 41800 | 13900 | 541 | 1240 | 230 | 256 | 423 | 347
20 | GKEKKAAAGEAPSQS | 2930 | 2440 | 914 | 3690 | 2990 | 8000 | 142 | 94.6 | 98.6 | 76 | 93.1 | 107
